Source: paper PMC4336329 (PLoS ONE, 2015)
Hit rate of the full screen: of about 310,000 compounds, about 2,200 (0.71%) showed an effect of 50% or more. The effect is printed as a negative number. The list shows a part of the results.

Each molecule was assayed against human ether-à-go-go-related gene (hERG) potassium channel (human, UniProt Q12809) (assay: primary screen, population patch clamp on CHO cells stably expressing hERG).
human ether-à-go-go-related gene (hERG) potassium channel, sequence (Q12809 whole entry, looked up): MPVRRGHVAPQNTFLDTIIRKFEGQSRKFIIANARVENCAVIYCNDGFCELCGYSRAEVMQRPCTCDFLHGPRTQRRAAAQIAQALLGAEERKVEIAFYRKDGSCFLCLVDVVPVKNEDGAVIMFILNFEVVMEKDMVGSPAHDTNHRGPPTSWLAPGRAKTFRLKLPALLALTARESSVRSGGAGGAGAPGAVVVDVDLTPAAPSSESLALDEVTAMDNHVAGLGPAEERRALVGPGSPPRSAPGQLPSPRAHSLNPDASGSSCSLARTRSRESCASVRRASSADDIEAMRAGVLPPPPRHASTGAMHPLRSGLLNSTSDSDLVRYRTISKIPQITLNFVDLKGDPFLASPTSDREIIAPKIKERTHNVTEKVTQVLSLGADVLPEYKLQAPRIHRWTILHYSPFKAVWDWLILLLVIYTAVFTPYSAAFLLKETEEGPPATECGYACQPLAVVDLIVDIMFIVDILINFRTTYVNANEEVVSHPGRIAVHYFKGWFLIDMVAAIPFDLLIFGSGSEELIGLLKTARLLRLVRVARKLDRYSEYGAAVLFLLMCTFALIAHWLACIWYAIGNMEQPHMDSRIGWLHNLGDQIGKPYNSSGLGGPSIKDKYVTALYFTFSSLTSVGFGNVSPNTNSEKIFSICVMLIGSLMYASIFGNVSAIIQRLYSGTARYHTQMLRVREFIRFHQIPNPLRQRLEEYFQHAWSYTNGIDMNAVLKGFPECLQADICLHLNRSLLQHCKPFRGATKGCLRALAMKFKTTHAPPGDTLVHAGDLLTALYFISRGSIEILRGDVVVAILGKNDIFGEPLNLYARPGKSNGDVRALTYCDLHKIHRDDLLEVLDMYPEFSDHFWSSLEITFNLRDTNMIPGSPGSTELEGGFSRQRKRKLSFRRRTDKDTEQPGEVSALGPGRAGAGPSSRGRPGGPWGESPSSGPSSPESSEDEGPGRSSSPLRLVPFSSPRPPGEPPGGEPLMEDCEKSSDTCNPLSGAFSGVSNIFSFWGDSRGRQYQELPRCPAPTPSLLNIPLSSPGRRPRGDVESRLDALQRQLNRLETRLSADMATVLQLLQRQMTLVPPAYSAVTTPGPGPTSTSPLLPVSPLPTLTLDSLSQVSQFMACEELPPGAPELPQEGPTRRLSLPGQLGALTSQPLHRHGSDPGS

Compound | hERG current change (%, negative = inhibition) at 1uM [%]
O=C(Nc1ccc(S(=O)(=O)N2CCOCC2)cc1)c1cc([N+](=O)[O-])ccc1Cl | 11.4
NS(=O)(=O)c1ccc(N=Cc2c(O)n(C3CCCCC3)c(=O)n(C3CCCCC3)c2=O)cc1 | 11.8
Cc1ccc(OCC(=O)c2cc(C)n(-c3ccccc3)c2C)c([N+](=O)[O-])n1 | 1.59
COc1ccc(-c2cc(C(=O)Nc3cc(S(N)(=O)=O)ccc3C)c3ccccc3n2)cc1OC | 10.9
NS(=O)(=O)c1ccc(-c2ccc(/C=N/Nc3ccc(C(=O)O)cc3)o2)cc1 | 3
COc1ccc([N+](=O)[O-])cc1NC(=S)NC(NC(=O)Cc1ccc(OC)c(OC)c1)C(Cl)(Cl)Cl (stereo not drawn) | 7.54
COc1ccc(NC(=O)CN(C)C(=O)Cc2c[nH]c3ccccc23)cc1 | 3.36
COC(C(=O)N1CCC(CCC(=O)Nc2ccccc2)CC1)c1ccccc1 (stereo not drawn) | 1.82
Cc1cccc(NC(=O)c2cccnc2)c1C | 13.1
CCOC(=O)Cc1csc(NC(=O)CCC(=O)O)n1 | 15.1
Cn1c(C(=O)O)c(CC(=O)Nc2ccccc2F)c2ccccc21 | 4.81
O=C(c1cc(Cl)nc2ccccc12)N(Cc1nnc(-c2ccccc2Cl)o1)C1CC1 | 2.4
Cc1cccc(C(=O)NNC(=O)C2CC2)c1 | 3.65
COc1cc2cc(C[C@H](C)O)oc(=O)c2cc1OC | 17.8
O=S(=O)(NCc1cccnc1)c1ccc2ccccc2c1 | 12.2
C/C(=N\Nc1ccc([N+](=O)[O-])cc1)c1ccc(N2CCOCC2)cc1 | 10.1
COc1cccc(-c2n[nH]c3c2CCC3)c1 | 5.46
CC(C)(C)n1nnnc1C(c1ccncc1)N1CCCCCC1 (stereo not drawn) | 9.52
CCCn1c(N)c(C(=O)CSc2nnc(C3CC3)n2Cc2ccccc2)c(=O)n(C)c1=O | 2.06
COc1ccc(C(=O)O)cc1S(=O)(=O)Nc1ccccc1-c1ccccc1 | 10.7
NC(=O)c1nsc(C(=O)N(c2cccc(F)c2)C(C(=O)NCC2CCCO2)c2cccs2)c1N (stereo not drawn) | 12.1
CN(/N=C/c1ccccc1O)C(=S)c1ccccc1 | 8.65
O=C(Nc1cccc2ncccc12)c1ccc(-c2ccc(Cl)cc2Cl)o1 | -0.858

Compound | hERG current change (%, negative = inhibition) at 1uM [%]
O=C(CSc1nnc(COc2ccccc2)o1)NCCc1ccccc1 | 7.98
O=C(O)C(=O)/C(=C\c1cccc(Cl)c1)c1ccc2ccccc2n1 | -4.78
CC1Cc2ccccc2N1Cc1cc(=O)n2ccsc2n1 (stereo not drawn) | 10.2
O=Cc1cc2ccccc2nc1SCc1ccc(Cl)cc1 | 4.51
O=C(C1CC(=O)N(c2ccc3c(c2)OCCO3)C1)N1CCN(c2ccccc2O)CC1 (stereo not drawn) | 2.38
COc1ccc(OC)c(NC(=O)C(Sc2ccccc2)c2ccccc2)c1 (stereo not drawn) | 6.46
Cc1nc2ccccc2c2nc(NC(=O)C(F)(F)F)nn12 | 1.73
CCOC(=O)Nc1ccc(S(=O)(=O)N(C)C(C)C)cc1 | 4.98
Cc1ccc(S(=O)(=O)N2CCC(C(=O)NCCN3CCCCCC3)CC2)cc1 | -4.77
CC(=O)Oc1cccc(N2C(=O)C3C4C=CC(C4=C(C)C)C3C2=O)c1 (stereo not drawn) | 15.5
COc1ccc([N+](=O)[O-])cc1NC(=O)Cc1c(Cl)cccc1Cl | 13.2
Cc1ccc(C(=O)CCc2ccc(N)cc2)cc1 | 11.8
CC(NC(=O)NC(=O)c1ccc(Cl)cc1Cl)C1CC1 (stereo not drawn) | 5.49
COc1ccccc1C/C(N)=N/OC(=O)COc1cccc(C)c1C | 6.44
Cc1ccc2[nH]nc(C(=O)N3CCCC(C(=O)c4ccc(Cl)cc4)C3)c2c1 (stereo not drawn) | 19.6
O=S(=O)(c1ccccc1)c1ccccc1/C=N\O | 0.466
CC1SC(c2ccc(Cl)cc2Cl)NC1=O (stereo not drawn) | 12.2
COC(=O)c1sc(C(=O)OC)c(C(=O)OC)c1C(=O)OC | 2.77
Cc1ccc(C(=O)CSc2nnnn2C(C)C)c(C)c1 | 12.7
CC12CCC(C(=O)NCc3cccnc3)(OC1=O)C2(C)C (stereo not drawn) | 11.9
CCOc1ccc(N(CC(=O)NC2CCCCC2)S(=O)(=O)c2ccccc2)cc1 | 15.3
Nc1nc(C23CC4CCC(CC(C4)C2)C3)cs1 | 5.49
CC(NC(=S)Nc1ccc(Cl)cc1)C(c1ccccc1)N1CCOCC1 (stereo not drawn) | 6.38

Compound | hERG current change (%, negative = inhibition) at 1uM [%]
COc1ccc(NC(=O)C2CCN(S(=O)(=O)c3ccc4c(c3)NC(=O)C(C)S4)CC2)cc1 (stereo not drawn) | 12.4
CCC(O)C1CCN(C(=O)c2cc(COc3ccc4ncccc4c3)on2)CC1 (stereo not drawn) | 17.1
N#C/C(=C\c1coc2ccc(O)cc2c1=O)C(=O)Nc1nc2ccccc2s1 | 12
COc1ccc(CCNc2oc(-c3ccco3)nc2C#N)cc1 | 13.4
COc1ccc(N(CC(=O)N2CCc3ccccc3C2)S(=O)(=O)c2c(C)[nH]c(=O)[nH]c2=O)cc1 | 11.9
Cc1cc(C)c(NC(=O)C2CCCN2CCOC(=O)c2cccc([N+](=O)[O-])c2)c(C)c1.Cl (stereo not drawn) | 2.29
Cc1ccccc1OCCn1c(S(=O)(=O)O)nc2c(N)ncnc21 | 12.8
CCOc1ccc(NS(=O)(=O)c2coc(C(N)=O)c2)cc1 | 8.93
COC(=O)NCC(C)OC(=O)Nc1ccc(Cl)cc1 (stereo not drawn) | 12.7
O=C(O)C(=O)O.OCCNCCCCOc1cccc(Br)c1 | 0.273
CC(C)Nc1nc(-c2ccccc2)nnc1-c1ccccc1 | 0.584
Cc1ccc(NC(=O)c2cc3ccccc3o2)cc1 | 16.8
CCN(C(=O)COC(=O)CNS(=O)(=O)c1ccc2ccccc2c1)C1CCCCC1 | -0.0079
COc1ccc2[nH]c3c(c2c1)CCN1C(=O)N([C@@H](C)C(=O)NCC2CCCO2)C(=O)[C@]31C (stereo partly drawn) | 2.2
CC1(C)CC(=O)C2=C(C1)NC(Nc1nc3ccccc3o1)=NC2c1ccccn1 (stereo not drawn) | -5.1
O=C(Cn1cc(/C=C\[N+](=O)[O-])c2ccccc21)Nc1ccccc1 | 8.45
CC1CCCC(C)N1C(=O)COC(=O)Cn1cnc2c1c(=O)n(C)c(=O)n2C (stereo not drawn) | 19.6
CCOC(=O)c1oc2ccc(S(=O)(=O)Nc3ccc4c(c3)n(C)c(=O)n4C)cc2c1C | 2.26
CC(=O)NC(O)C(=O)c1ccccc1 (stereo not drawn) | 19.5
Cc1cc(C2C(C#N)=C(N)Oc3n[nH]c(C)c32)c(C)s1 (stereo not drawn) | 20.4
Cc1cc(=O)[nH]c2c1c(=O)[nH]n2C1CC(C)N(C)CC1C (stereo not drawn) | 12.3
O=C(NCCc1ccccn1)C1CC(=O)N(Cc2ccccc2Cl)C1 (stereo not drawn) | 4.09
O=C(CCN1C(=O)C2CC=CCC2C1=O)NC1CCCCC1 (stereo not drawn) | -1.06

Compound | hERG current change (%, negative = inhibition) at 1uM [%]
CCCc1c(NC(=O)Nc2ccc(F)cc2)cnn1-c1ccccc1 | 11.9
Cc1ccc(S(=O)(=O)N2CCN(C(=O)COC(=O)c3ccc(Br)o3)CC2)c(C)c1 | 16
CCOc1ccccc1CNC(=O)CCC(=O)N1Cc2ccccc2Oc2ncccc21 | 11.5
CC(=O)Nc1cccc(S(C)(=O)=O)c1 | 8.17
COc1ccc(/C=C/C(=O)c2ccccc2O)cc1CN1CCOCC1 | 10.6
Cc1csc(SCC(=O)Nc2cc(S(=O)(=O)N3CCCC3)ccc2Cl)n1 | 5.78
CC1(C)CC2CC(C)(CN2S(=O)(=O)c2cccc(N)c2)C1 (stereo not drawn) | 11.8
Cc1cccc2sc(NS(C)(=O)=O)nc12 | 17.2
Cc1nnc2n(-c3ccccc3)c(=O)c3c4c(sc3n12)COC(C)(C)C4 | 0.998
C=CCN1CCN(C(=O)c2ccc3c(c2)OCO3)CC1 | 11.7
O=C(COC(=O)c1cccnc1Nc1ccccc1F)NC1CC1 | 7.21
C=CCn1c(-c2cccc([N+](=O)[O-])c2)n[nH]c1=S | 16
CCOC(=O)c1ccc2[nH]c(-c3ccc(S(=O)(=O)F)cc3)cc(=O)c2c1 | 11
Cc1ccc(Oc2ncccc2/C=N/OCc2ccc(Cl)c(Cl)c2)cc1 | 12.6
Cc1cc(SCC(=O)c2cccc([N+](=O)[O-])c2)nc(=O)[nH]1 | 18.5
O=C(CCSCc1ccccc1F)N1CCN(c2ccccn2)CC1 | -6.63
Cl.O=C(NN1C(=O)CSC1=S)c1cccnc1 | 11.9
C/C(=N/NC(=O)c1cccs1)c1cccs1 | 8.98
O=C(CC12CC3CC(CC(C3)C1)C2)NCCN1CCOCC1 | 2.55
Cc1cc(Cn2nc(C(=O)NCc3cccs3)cc2-c2ccccc2)on1 | -11.8
Cc1noc(C)c1COc1ccccc1C(=O)NNC(=O)c1ccccc1F | -4.18
